Measured values reported in PMC4336329 (PLoS ONE, 2015).
In all, about 310,000 compounds went through this assay and about 2,200 (0.71%) showed an effect of 50% or more. The effect is printed as a negative number. Some of the results follow.

Target: human ether-à-go-go-related gene (hERG) potassium channel (human, UniProt Q12809)
Experiment: primary screen, population patch clamp on CHO cells stably expressing hERG

Chain of human ether-à-go-go-related gene (hERG) potassium channel (Q12809 whole entry, looked up): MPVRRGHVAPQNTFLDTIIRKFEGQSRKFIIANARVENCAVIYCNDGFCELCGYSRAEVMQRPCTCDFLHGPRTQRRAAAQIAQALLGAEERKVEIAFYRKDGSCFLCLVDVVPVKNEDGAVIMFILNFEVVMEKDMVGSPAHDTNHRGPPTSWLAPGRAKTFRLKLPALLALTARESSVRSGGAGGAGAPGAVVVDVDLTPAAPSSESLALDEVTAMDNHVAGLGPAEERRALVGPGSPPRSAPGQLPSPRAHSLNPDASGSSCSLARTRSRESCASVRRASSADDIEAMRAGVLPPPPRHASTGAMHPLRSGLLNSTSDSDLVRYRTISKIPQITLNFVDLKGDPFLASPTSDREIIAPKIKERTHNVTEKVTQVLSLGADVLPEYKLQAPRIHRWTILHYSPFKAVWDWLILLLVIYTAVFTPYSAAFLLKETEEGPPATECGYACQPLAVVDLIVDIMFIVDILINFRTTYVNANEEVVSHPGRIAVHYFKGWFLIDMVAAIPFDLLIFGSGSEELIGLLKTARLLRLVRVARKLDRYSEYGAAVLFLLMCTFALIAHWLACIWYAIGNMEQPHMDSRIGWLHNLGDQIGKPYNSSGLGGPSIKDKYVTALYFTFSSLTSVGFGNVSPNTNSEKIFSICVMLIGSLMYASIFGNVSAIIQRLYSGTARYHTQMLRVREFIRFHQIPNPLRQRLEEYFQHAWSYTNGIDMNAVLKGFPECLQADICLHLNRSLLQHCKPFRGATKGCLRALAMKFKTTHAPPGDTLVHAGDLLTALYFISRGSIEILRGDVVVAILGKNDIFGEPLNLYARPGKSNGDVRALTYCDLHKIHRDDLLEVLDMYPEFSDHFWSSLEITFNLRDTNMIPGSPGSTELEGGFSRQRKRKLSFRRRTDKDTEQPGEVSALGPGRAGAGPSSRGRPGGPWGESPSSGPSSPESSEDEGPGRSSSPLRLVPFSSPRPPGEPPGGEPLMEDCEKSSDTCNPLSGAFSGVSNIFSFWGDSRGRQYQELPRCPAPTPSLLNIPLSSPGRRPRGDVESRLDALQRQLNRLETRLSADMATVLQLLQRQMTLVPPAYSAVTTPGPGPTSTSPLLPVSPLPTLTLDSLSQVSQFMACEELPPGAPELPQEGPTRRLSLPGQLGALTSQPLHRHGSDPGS

| Compound | hERG current change (%, negative = inhibition) at 1uM [%] |
| --- | --- |
| O=C(COc1ccccc1)N1CCN(C2CC3CCC2C3)CC1 (stereo not shown) | 9.89 |
| CCCn1ncc(CN2CCN(CCc3ccccc3)C(CCO)C2)c1C (stereo not shown) | -7.62 |
| Cc1cc(C(F)(F)F)n2ncc(C(=O)O)c2n1 | 4.66 |
| COc1ccc(S(=O)(=O)Nc2nnc(Cc3ccc(OC)c(OC)c3)s2)cc1 | 15.4 |
| COc1cc(C2CC(=O)NC3=C2C(=O)CC(C)(C)C3)cc(OC)c1O (stereo not shown) | 13.7 |
| Cc1cc(C(=O)COC(=O)c2ccc3c(c2)OCO3)c(C)n1CC1CCCO1 (stereo not shown) | -9.99 |
| O=C(N1CCCCC1)C12CC3CC(C1)CC(C(=O)N1CCCCC1)(C3)C2 | 1.5 |
| CC(=O)c1c(C)[nH]c(C(=O)OCc2ccc(Br)cc2)c1C | -1.08 |
| O=C(Nc1ccncc1)c1cc(S(=O)(=O)N2CCOCC2)ccc1Cl | -17.4 |
| Cc1ccccc1C(=O)NNC(=O)Nc1ccccc1 | 6.51 |
| COc1ccc(CNC(=O)c2ccc(CS(=O)(=O)c3ccc(Br)cc3)o2)cc1 | -2.93 |
| CN(C)S(=O)(=O)c1ccc(C(=O)Nc2cccc(S(=O)(=O)NC3=NCCC3)c2)cc1 | 9 |
| COc1cccc(-c2cccc(NC(=O)C3CCN(Cc4cnn(C)c4)CC3)c2)c1 | 19.9 |
| CCn1ccnc1CN(C)Cc1cn(-c2ccc(C)cc2)nc1-c1ccc(F)cc1 | 3.83 |
| C=C(C)CSc1nc2sc3c(c2c(=O)n1-c1ccccc1)CCN(C)C3 | 14.5 |
| CCc1ccc(Nc2n[n+](-c3ccccc3)c(-c3c(Cl)cccc3Cl)s2)cc1.[Cl-] | -7.83 |
| CC1COc2c(N3CCN(C)CC3)c(F)cc3c(=O)c(C(=O)O)cn1c23 (stereo not shown) | 15.6 |
| CC1=N/C(=C\c2ccc([N+](=O)[O-])cc2)C(=O)N1c1ccc(Br)c(C)c1 | 10.8 |
| Cc1ccc(-c2nn(-c3ccccc3)cc2C(=O)NCCCN2CCCC2=O)cc1 | -3 |
| CC/C(CC(=O)C(F)(F)F)=N\NC(=O)/C(C#N)=C/N(C)C | 16.5 |
| c1cc(-c2nnc3n2CCCCC3)ccn1 | 7.04 |
| CC(Sc1nnc(-c2ccco2)n1C)C(=O)NC1CCCC1 (stereo not shown) | 15 |

| Compound | hERG current change (%, negative = inhibition) at 1uM [%] |
| --- | --- |
| CC(O)[C@H]1CN=C(N)N1CCCCC1CCCCC1 (stereo partly shown) | 12.5 |
| COc1ccc(NC2SC(=O)N(CC(=O)O)C2=O)cc1 (stereo not shown) | 9.88 |
| CCCCn1c(SCC(N)=O)nc2sc3c(c2c1=O)CCC3 | 3.51 |
| CC(C)(C)C(=O)Nc1ccnn1C1CCN(C(=O)c2ccc(Cl)cc2F)CC1 | 10.9 |
| Cc1ccc(Nc2nnc(-c3ccc(N4CCOCC4)c([N+](=O)[O-])c3)c3ccccc23)cc1 | -3.96 |
| Cc1cc(C)cc(Oc2coc3c(CN(C)C)c(O)ccc3c2=O)c1 | 7.42 |
| CCOc1cccc(-c2c(C(=O)N/N=C(\C)c3cccnc3)nnn2-c2nonc2N)c1 | 12.2 |
| COc1cccc(/C=N/NC(=O)c2cnn(-c3ccccc3)c2N)c1 | 3.81 |
| COc1ccc(S(=O)(=O)N[C@H](C(=O)O)C(C)C)cc1 | 7.2 |
| O=[N+]([O-])c1ccc2c(c1)ncn2CCc1ccccc1 | 9.78 |
| CCN(CC)CC(O)COc1ccc2c(c1)c(C(C)=O)c(C)n2-c1ccccc1 (stereo not shown) | 1.64 |
| O=C(O)Cc1ccc(N=Cc2c(O)ccc3ccccc23)cc1 | 0.154 |
| CCOc1ccccc1/C=N/NC(=O)c1nnn(-c2nonc2N)c1CN1CCCCCC1 | 14.6 |
| CC(/C=N/NC(=O)c1nn(C)c(C)c1Br)=C\c1ccccc1 | -1.19 |
| Cc1ccc(N2C(=O)C3C4CC(=O)C(c5ccccc54)C3C2=O)cc1 (stereo not shown) | 4.46 |
| COC(=O)/C=C/c1cnc2ccccc2c1 | 24.1 |
| COc1ccc(N(CC(=O)N2CCc3ccccc32)S(=O)(=O)c2c(C)noc2C)cc1 | 5.61 |
| Cc1nnc(NC(=O)CSc2n[nH]c(-c3ccccc3)n2)s1 | 11.7 |
| O=C(c1ccc(Cl)c(S(=O)(=O)N2CCOCC2)c1)N(Cc1nnc(-c2ccccc2Cl)o1)C1CC1 | 9.47 |
| CCC(C)OC(=O)C1C(c2ccccc2)C(C(=O)O)C1c1ccccc1 (stereo not shown) | 8.25 |
| O=C(CCN1CCN(CCO)CC1)Nc1ccc(Br)cc1 | 4.71 |
| Cl.c1coc(CNCC2OCCc3ccccc32)c1 (stereo not shown) | -0.6 |

| Compound | hERG current change (%, negative = inhibition) at 1uM [%] |
| --- | --- |
| CCn1c(SCC(=O)c2ccc(CNC(C)=O)o2)nnc1-c1cccs1 | 6.31 |
| Cc1ccc2c(COC(=O)c3n[nH]c4ccccc34)cc(=O)oc2c1 | 6.95 |
| Cc1cc(C=O)c(C)n1-c1cccc(C(=O)O)c1 | 13.8 |
| Cc1sc(NC(=O)Nc2ccccc2)c(C(N)=O)c1C | 11.6 |
| Cc1ccc(C)c(CN2C(=O)C3CCCN3c3ccc(C#N)cc32)c1 (stereo not shown) | -0.327 |
| COc1ccc(C2=NOC(COC(=O)c3ccc4ccccc4n3)C2)cc1 (stereo not shown) | 21.8 |
| NC(=O)C1CCN(C(=O)C(=O)c2cn(CC(=O)N3CCCCCC3)c3ccccc23)CC1 | 16 |
| C=C1C(C(=O)Nc2ccc(OCC)cc2)C1C(=O)Nc1ccc(OCC)cc1 (stereo not shown) | 9.21 |
| Cc1ccc(S(=O)(=O)CCC(=O)OCC(=O)Nc2cc(S(=O)(=O)N3CCOCC3)ccc2C)cc1 | 4.04 |
| Cc1ccc(-n2nc3c(c2NC(=O)C(C)C)CS(=O)(=O)C3)c(C)c1 | 17.3 |
| Cl.O=C(O)CCN1CCOCC1 | 15.3 |
| COc1ccc([N+](=O)[O-])cc1NC(=O)C1CCCN1S(=O)(=O)c1cccs1 (stereo not shown) | 16 |
| CCOC(=O)c1c2ccc(OCC(=O)N/N=C/c3ccc(C)cc3)cc2n2ccccc12 | 0.244 |
| O=C(NCCc1cccnc1)c1cc(COc2ccc(F)cc2F)on1 | 5.17 |
| COc1ccc(C(=O)NCCS(=O)(=O)NCCc2ccccc2)cc1 | 1.67 |
| COc1ccc(OC)c(CN2CCN(C(=O)c3cc4ccccc4cc3O)CC2)c1 | 2 |
| CCCCN(CC)S(=O)(=O)c1ccccc1 | -5.92 |
| O=S(=O)(N1CCCCC1)N1CCNCC1 | 7.21 |
| COc1cccc(OCC(=O)Nc2ccccc2-c2ccccc2)c1 | 9.8 |
| Cc1ccc(-c2csc3n[nH]c(=S)n23)cc1 | 4.28 |
| CC(Cc1c[nH]c2ccccc12)NC(N)=O (stereo not shown) | 5.8 |
| COc1ccc2[nH]c(C(=O)O)c(NS(=O)(=O)c3ccc(OC)c(OC)c3)c2c1 | -0.371 |

| Compound | hERG current change (%, negative = inhibition) at 1uM [%] |
| --- | --- |
| CCN(CC)CCNC(=O)c1ccccc1C(=O)c1ncc[nH]1 | 8.33 |
| Cc1c(/C(O)=C2/C(=O)C(=O)N(CCN3CCOCC3)C2c2cccs2)cnn1-c1ccccc1 (stereo not shown) | 9.87 |
| O=C(COc1ccc(Cl)cc1)NCCc1ccccn1 | 11.4 |
| Cn1c(COc2ccccc2)nnc1SCC(=O)Nc1ccc2c(c1)OCO2 | 3.11 |
| C/C=C/C=C/C(=O)N1CC[C@]23c4ccccc4N[C@H]4N(C)c5cccc6c5[C@]42CCN([C@H]6C2OC2(C)C)[C@H]13 (stereo partly shown) | 1.17 |
| O=C1C(c2ccc(F)cc2)N(C2CCCCC2)C(=O)CN1C1CCCC1 (stereo not shown) | -12 |
| COc1cccc(Nc2ncnc3c2cnn3C)c1 | 7.93 |
| CCOc1cc(/C=C2\SC(=O)N(c3ccc(O)cc3)C2=O)ccc1O | 5.51 |
| COc1ccc(S(=O)(=O)N2CCCCC2)cc1C(=O)N1CCCC1 | 22.9 |
| O=C(Nc1ccc2c(c1)OCO2)c1ccc2c(c1)S(=O)(=O)c1ccccc1C2=O | 16.4 |
| Cn1c(Cc2cccs2)nnc1SCc1nc2ccccc2[nH]1 | 1.35 |
| Cc1ccc(S(=O)(=O)N(C)c2ccc(C(=O)NCC(c3cccs3)N3CCOCC3)cc2)cc1 (stereo not shown) | 18.9 |
| CCCS(=O)(=O)N1CCN(S(=O)(=O)c2ccccc2[N+](=O)[O-])CC1 | 6.9 |
| CC(CN(C)Cc1ccccc1)OC(=O)C1COc2ccccc2O1.Cl (stereo not shown) | 16.1 |
| CCOC(=O)c1nc(N2CCN(C(=O)OCC)CC2)c2c3c(sc2n1)CCCC3 | -6.61 |
| Cc1ccccc1NC(=O)C1CCCN1S(=O)(=O)c1ccc2c(c1)n(C)c(=O)c(=O)n2C (stereo not shown) | 3.98 |
| COC(=O)Cn1c(C)nc(=O)c(-c2ccccc2)c1C | 12.5 |
| [N-]=[N+]=CC(=O)c1ccnc(C(=O)C=[N+]=[N-])c1 | -6.5 |
| COc1cc(C(=O)NCCc2nc3ccccc3n2C)cc(OC)c1OC | 4.1 |
| Cc1ccc([N+](=O)[O-])cc1NC(=S)NC(=O)CC(C)(C)C | 2.05 |
| O=C(Nc1ccc(Cl)cc1C(=O)Nc1ccccn1)c1ccco1 | -3.56 |
| CC(C)OC(=O)c1ccc(NC(=O)c2cccc(-n3cnnn3)c2)cc1 | 9.85 |
